According to PubChem BioAssay (NCATS):
The other results are listed elsewhere or left out. Shown are side measurements of this screen, not its main read-out; they come without a call. Compounds called inactive in the main read-out are mostly missing here. The note in brackets gives the kind of curve behind each potency; many fits are weak.

Experiment: Cell-based coincidence reporter assay to measure PMP22 gene transcription in S16 Pmp22-F2sN cells - Confirmatory screen (AID 1508646)
Conditions: S16 Schwann cells Pmp22-F2sN, dual luciferase, 24 h
Outline: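 S16 Schwann cells carrying a bioluminescent reporter in the Pmp22 3' UTR (Pmp22-F2sN) were treated with compounds for 24 h at 37C, then lysed; FLuc and then NLuc luminescence were read sequentially with a dual-luciferase kit on a CCD imager.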

[1] = measured here: FLuc reporter channel
[2] = measured here: NLuc reporter channel
Tags describe the fitted curve by direction and shape.

## COc1ccc(NS(=O)(=O)c2ccc3c(c2)CC(C)N3C(=O)C2CCC2)cc1OC (stereo not drawn)
[1]
  AC50: 4.32 µM [falling, full curve]
[2]
  AC50: 1.93 µM [falling, full curve]

## Cc1cccc(NC(=O)C2CCCN(c3nnc(-n4c(C)ccc4C)s3)C2)c1C (stereo not drawn)
[1]
  AC50: 17.2 µM [falling, partial curve, poor fit]
[2]
  AC50: 17.2 µM [falling, partial curve, poor fit]

## CSc1ccc(CCNC(=O)c2c(C)nn(-c3ccc(F)cc3)c2-n2cccc2)cc1
[1]
  AC50: 21.7 µM [falling, partial curve, poor fit]
[2]
  AC50: 8.62 µM [falling, partial curve, poor fit]

## O=C(CCn1cnnn1)Nc1cc(C(F)(F)F)cc(C(F)(F)F)c1
[1]
  AC50: 19.3 µM [falling, partial curve, poor fit]
[2]
  AC50: 10.9 µM [falling, partial curve, poor fit]

## Cc1ccc(CNC(=O)c2ccc(Cn3c(=O)c4ccccc4n(CC(=O)Nc4c(C)cc(C)cc4C)c3=O)cc2)cc1
[1]
  AC50: 9.68 µM [falling, full curve]
[2]
  AC50: 6.11 µM [falling, full curve]

## Cc1ccc(NC(=O)c2ccc3c(=O)n4nc(Nc5ccccc5C)sc4nc3c2)cc1C
[1]
  AC50: 10.9 µM [falling, full curve]
[2]
  AC50: 15.3 µM [falling, full curve]

## Cc1cc(Nc2cccc(Br)c2)n2c(nc3ccccc32)c1C#N
[1]
  AC50: 43.2 µM [falling, single point]
[2]
  AC50: 43.2 µM [falling, single point]

## CCCCC(CC)CNC(=O)c1ccc2c(=O)n(Cc3ccc(OC)cc3)c(=O)[nH]c2c1 (stereo not drawn)
[1]
  AC50: 5.44 µM [falling, full curve]
[2]
  AC50: 10.9 µM [falling, partial curve, poor fit]

## CCCCN(CC)C(=O)CSc1nc2n[nH]c(C)c2c(=N)n1-c1ccc(CC)cc1
[1]
  AC50: 19.3 µM [falling, partial curve]
[2]
  AC50: 27.3 µM [falling, partial curve, poor fit]

## Cc1c(C(=O)Nc2ccccc2Cl)oc2ccc(S(=O)(=O)N3CCCCC3)cc12
[1]
  AC50: 15.3 µM [falling, partial curve]
[2]
  AC50: 24.3 µM [falling, partial curve]

## COc1ccc(CCNc2ncnc3onc(C)c23)c(OC)c1
[1]
  AC50: 3.06 µM [falling, full curve]
[2]
  AC50: 4.85 µM [falling, full curve]

## Cc1ccc2c(c1)C(=O)C(=O)N2Cc1ccc(OCCC(C)C)cc1
[1]
  AC50: 10.9 µM [falling, partial curve]
[2]
  AC50: 12.2 µM [falling, partial curve]

## CC1=Nc2cc(C(=O)NC3CCCCC3)ccc2Sc2ccc(Cl)cc21
[1]
  AC50: 7.69 µM [falling, full curve]
[2]
  AC50: 9.68 µM [falling, full curve]

## CCOC(=O)c1ccc(N2C(=O)c3n[nH]c(C)c3C2c2ccc(O)c(OC)c2)cc1 (stereo not drawn)
[1]
  AC50: 17.2 µM [falling, partial curve]
[2]
  AC50: 21.7 µM [falling, partial curve]

## CC(=O)Nc1cccc(-c2nnc(SCC(=O)c3cc([N+](=O)[O-])ccc3Br)o2)c1
[1]
  AC50: 17.2 µM [falling, partial curve]
[2]
  AC50: 17.2 µM [falling, partial curve]

## COc1ccc(N2CCN(c3c4c(nc5nncn35)CCC4)CC2)cc1
[1]
  AC50: 24.3 µM [falling, partial curve]
[2]
  AC50: 27.3 µM [falling, single point]

## COc1cccc(CNC(=O)Nc2ccc3c(c2)N(C)C(=O)c2ccccc2S3)c1
[1]
  AC50: 27.3 µM [falling, single point]
[2]
  AC50: 43.2 µM [falling, single point]

## CC(CNC(=O)CCCn1c(=O)c2cccn2c2ccc(F)cc21)c1ccccc1 (stereo not drawn)
[1]
  AC50: 21.7 µM [falling, partial curve, poor fit]
[2]
  AC50: 24.3 µM [falling, partial curve, poor fit]

## CCCCn1c(=O)c2oc3ccccc3c2n(CC(=O)Nc2ccc(CC)cc2)c1=O
[1]
  AC50: 21.7 µM [falling, partial curve]
[2]
  AC50: 24.3 µM [falling, partial curve]
